# From the supplement of paper PMC12645437, “Orthogonal IMiD-Degron Pairs Induce Selective Protein Degradation in Cells” (ACS Chemical Biology, 2025)
# Some of the results follow.
# Molecular target: no compound (DMSO)
# Experiment: log2 fold change of degron read counts, EGFP-low vs EGFP+ sorted cells; higher = lower degron-EGFP level without compound (poor expression or instability)
# Settings: compound: DMSO control; 18 h
# 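Note: jurkat cells carrying a lentiviral library of mutant zinc finger degrons fused to EGFP plus mCherry, mCherry+ cells FACS sorted, degron abundance counted by next-generation sequencing.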
row,Sequence,log2 fold change of degron read counts
1,FLCEQCGAQFTQKGNLLRHIKL,-2.41
2,FNCNICGAFFTQKGNLLRHIKL,0.157
3,LWCPICGFSCTQKGNLLRHIKL,1.93
4,FCCSVCGHPFTQKGNLLRHIKL,-0.023
5,FDCNVCGAEFTQKGNLLRHIKL,-1.06
6,FGCEICGRDFTQKGNLLRHIKL,-0.775
7,FCCDVCGAEFTQKGNLLRHIKL,-1.74
8,FGCPVCGARFTQKGNLLRHIKL,-0.733
9,FACNQCGARFTQKGNLLRHIKL,-1.62
10,FMCNVCGAHFTQKGNLLRHIKL,-0.643
11,FHCEQCGADFTQKGNLLRHIKL,-2.94
12,FTCPVCGAGFTQKGNLLRHIKL,0.00224
13,FYCPICGALFTQKGNLLRHIKL,1.07
14,FGCSVCGHWFTQKGNLLRHIKL,1.68
15,FDCEICGHAFTQKGNLLRHIKL,-0.281
16,FGCNQCGASFTQKGNLLRHIKL,-0.135
17,FRCEICGADFTQKGNLLRHIKL,-1.73
18,FICPICGADFTQKGNLLRHIKL,-0.0549
19,FNCDQCGAAFTQKGNLLRHIKL,-1.78
20,FGCPICGRLFTQKGNLLRHIKL,0.56
21,FCCEICGAHFTQKGNLLRHIKL,-1.2
22,FRCDVCGAMFTQKGNLLRHIKL,-1.5
23,FFCNQCGRNFTQKGNLLRHIKL,0.295
24,LCCPICGFHCTQKGNLLRHIKL,0.744
25,FQCPVCGAGFTQKGNLLRHIKL,-0.117

row,Sequence,log2 fold change of degron read counts
1,FVCPVCGAPFTQKGNLLRHIKL,0.0267
2,FICPVCGACFTQKGNLLRHIKL,-0.103
3,FECDQCGATFTQKGNLLRHIKL,-2.61
4,FMCPICGRWFTQKGNLLRHIKL,0.836
5,FVCNVCGALFTQKGNLLRHIKL,-0.514
6,FSCPICGRVFTQKGNLLRHIKL,0.176
7,FKCEICGREFTQKGNLLRHIKL,-2.54
8,FQCPICGHNFTQKGNLLRHIKL,-0.885
9,LKCEICGFACTQKGNLLRHIKL,-0.203
10,FCCNICGAWFTQKGNLLRHIKL,0.334
11,FSCNVCGAHFTQKGNLLRHIKL,-0.994
12,FLCDICGAVFTQKGNLLRHIKL,-0.593
13,FCCPQCGASFTQKGNLLRHIKL,-2.03
14,FLCEICGANFTQKGNLLRHIKL,-1.09
15,LGCEICGFNCTQKGNLLRHIKL,0.307
16,FDCPQCGAVFTQKGNLLRHIKL,-1.51
17,LQCPICGFECTQKGNLLRHIKL,-0.423
18,FCCNVCGANFTQKGNLLRHIKL,-0.718
19,FACNQCGAWFTQKGNLLRHIKL,0.527
20,FMCDVCGAPFTQKGNLLRHIKL,-0.813
21,FWCEICGAFFTQKGNLLRHIKL,0.962
22,FLCPQCGALFTQKGNLLRHIKL,0.204
23,FICEQCGAQFTQKGNLLRHIKL,-1.8
24,FKCPICGRYFTQKGNLLRHIKL,-0.281
25,FKCEICGARFTQKGNLLRHIKL,-0.117
